Values quoted from earlier work as cited in PMC11006913.
This is one part of the list.

Columns and labels:
Settings in all cases: PBM; conditions not shown; double strand, one strand shown; scale: upbm affinity estimate (log intensity, higher = more binding, comparable within an allelic series)
[1] = target: PITX2 L100Q (Homo sapiens) (UniProt Q99697)
[2] = target: PITX2 R108H (Homo sapiens) (UniProt Q99697)
[3] = target: PITX2 R130W (Homo sapiens) (UniProt Q99697)
[4] = target: PITX2 T114P (Homo sapiens) (UniProt Q99697)

CGGTCACG [8-mer CGGTCACG]
binding signal [1]: 8.29
binding signal [2]: 8.09
binding signal [3]: 8.15
binding signal [4]: 8.15

ATTTAATC [8-mer ATTTAATC]
binding signal [1]: 10.9
binding signal [2]: 9.39
binding signal [3]: 8.76
binding signal [4]: 9.57

CAGATTAA [8-mer CAGATTAA]
binding signal [1]: 11
binding signal [2]: 9.31
binding signal [3]: 8.59
binding signal [4]: 9.48

GCGGGAGA [8-mer GCGGGAGA]
binding signal [1]: 8.18
binding signal [2]: 8.1
binding signal [3]: 8.02
binding signal [4]: 8.12

GAGAGGGC [8-mer GAGAGGGC]
binding signal [1]: 8.21
binding signal [2]: 7.94
binding signal [3]: 7.89
binding signal [4]: 8.01

GTAGATTA [8-mer GTAGATTA]
binding signal [1]: 10.9
binding signal [2]: 9.3
binding signal [3]: 8.8
binding signal [4]: 9.42

AAGATTAG [8-mer AAGATTAG]
binding signal [1]: 10.9
binding signal [2]: 9.12
binding signal [3]: 8.52
binding signal [4]: 9.3

ATTACCGA [8-mer ATTACCGA]
binding signal [1]: 9.63
binding signal [2]: 8.79
binding signal [3]: 8.62
binding signal [4]: 8.81

GAAGATTA [8-mer GAAGATTA]
binding signal [1]: 10.8
binding signal [2]: 9.16
binding signal [3]: 8.57
binding signal [4]: 9.33

ACGGATTA [8-mer ACGGATTA]
binding signal [1]: 11.4
binding signal [2]: 9.62
binding signal [3]: 8.74
binding signal [4]: 9.97

ATTTAACC [8-mer ATTTAACC]
binding signal [1]: 9.71
binding signal [2]: 8.7
binding signal [3]: 8.5
binding signal [4]: 8.79

GAGATTAA [8-mer GAGATTAA]
binding signal [1]: 11.3
binding signal [2]: 9.58
binding signal [3]: 8.74
binding signal [4]: 10

CCCATGCC [8-mer CCCATGCC]
binding signal [1]: 7.95
binding signal [2]: 8.03
binding signal [3]: 7.97
binding signal [4]: 8.09

GGGGATTA [8-mer GGGGATTA]
binding signal [1]: 11.8
binding signal [2]: 9.76
binding signal [3]: 8.36
binding signal [4]: 10.4

ACTAAGCC [8-mer ACTAAGCC]
binding signal [1]: 10.8
binding signal [2]: 8.99
binding signal [3]: 8.47
binding signal [4]: 9.23

AATAAGCG [8-mer AATAAGCG]
binding signal [1]: 9.38
binding signal [2]: 8.62
binding signal [3]: 8.46
binding signal [4]: 8.51
